# Test results reported in the supplement of paper PMC8728848.
# The other results are listed elsewhere or left out.
# Columns and labels:
# Experiment in all cases: glycan array binding signal (z-score within array); higher = stronger binding
# Conditions in all cases: glycan notation: IUPAC condensed, linker removed
# [1] = target: Fuc(a1-2)Gal(b1-4)GlcNAc(b1-3)Gal(b1-4)GlcNAc(b1-2)Man(a1-3)[Fuc(a1-2)Gal(b1-4)GlcNAc(b1-3)Gal(b1-4)GlcNAc(b1-2)Man(a1-6)]Man(b1-4)GlcNAc(b1-4)GlcNAc
# How it was run: (§1)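 The binding signal is a Z-score computed within each array and averaged over linkers. Arrays of the same protein sequence at different concentrations or buffers were also averaged together. Data originate from 3228 arrays in the Consortium for Functional Glycomics database, kept only where the protein sequence was available.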
# [2] = target: Fuc(a1-2)Gal(b1-4)GlcNAc(b1-3)Gal(b1-4)GlcNAc(b1-3)Gal(b1-4)GlcNAc
# How it was run: as §1
# [3] = target: Fuc(a1-2)Gal(b1-4)GlcNAc(b1-3)GalNAc
# How it was run: as §1
# [4] = target: Fuc(a1-2)Gal(b1-4)GlcNAc(b1-3)[Fuc(a1-2)Gal(b1-4)GlcNAc(b1-6)]GalNAc
# How it was run: as §1
# [5] = target: Fuc(a1-2)Gal(b1-4)GlcNAc(b1-3)[Fuc(a1-3)[Gal(b1-4)]GlcNAc(b1-6)]Gal(b1-4)Glc
# How it was run: as §1
# [6] = target: Fuc(a1-2)Gal(b1-4)GlcNAc(b1-6)GalNAc
# How it was run: as §1
# [7] = target: Fuc(a1-2)Gal(b1-4)GlcNAc6S
# How it was run: as §1
# [8] = target: Fuc(a1-2)Gal(b1-4)[Fuc(a1-3)]GlcNAc
# How it was run: as §1
# [9] = target: Fuc(a1-2)Gal(b1-4)[Fuc(a1-3)]GlcNAc(b1-2)Man(a1-3)[Fuc(a1-2)Gal(b1-4)[Fuc(a1-3)]GlcNAc(b1-2)Man(a1-6)]Man(b1-4)GlcNAc(b1-4)[Fuc(a1-6)]GlcNAc
# How it was run: as §1
# [10] = target: Fuc(a1-2)Gal(b1-4)[Fuc(a1-3)]GlcNAc(b1-2)[Fuc(a1-2)Gal(b1-4)[Fuc(a1-3)]GlcNAc(b1-4)]Man(a1-3)[Fuc(a1-2)Gal(b1-4)[Fuc(a1-3)]GlcNAc(b1-2)Man(a1-6)]Man(b1-4)GlcNAc(b1-4)GlcNAc
# How it was run: as §1
# [11] = target: Fuc(a1-2)Gal(b1-4)[Fuc(a1-3)]GlcNAc(b1-3)Gal(b1-4)[Fuc(a1-3)]GlcNAc
# How it was run: as §1
# [12] = target: Fuc(a1-2)Gal(b1-4)[Fuc(a1-3)]GlcNAc(b1-3)Gal(b1-4)[Fuc(a1-3)]GlcNAc(b1-3)Gal(b1-4)[Fuc(a1-3)]GlcNAc
# How it was run: as §1
# [13] = target: Fuc(a1-2)Gal(b1-4)[Fuc(a1-3)]GlcNAc(b1-3)GalNAc
# How it was run: as §1
# [14] = target: Fuc(a1-2)Gal(b1-4)[Fuc(a1-3)]GlcNAc(b1-3)[Neu5Ac(a2-6)Gal(b1-4)GlcNAc(b1-6)]Gal(b1-4)Glc
# How it was run: as §1
# [15] = target: Fuc(a1-2)Gal3S(b1-4)GlcNAc
# How it was run: as §1
# [16] = target: Fuc(a1-2)Gal6S(b1-3)GlcNAc
# How it was run: as §1
# [17] = target: Fuc(a1-2)Gal6S(b1-3)GlcNAc6S
# How it was run: as §1
# [18] = target: Fuc(a1-2)Gal6S(b1-4)Glc
# How it was run: as §1
# [19] = target: Fuc(a1-2)Gal6S(b1-4)Glc6S
# How it was run: as §1
# [20] = target: Fuc(a1-2)[Gal(a1-3)]Gal
# How it was run: as §1
# [21] = target: Fuc(a1-2)[Gal(a1-3)]Gal(b1-3)GalNAc
# How it was run: as §1
# [22] = target: Fuc(a1-2)[Gal(a1-3)]Gal(b1-3)GalNAc(b1-3)Gal(a1-4)Gal(b1-4)Glc
# How it was run: as §1
# [23] = target: Fuc(a1-2)[Gal(a1-3)]Gal(b1-3)GlcNAc
# How it was run: as §1
# [24] = target: Fuc(a1-2)[Gal(a1-3)]Gal(b1-3)GlcNAc(b1-2)Man(a1-3)[Fuc(a1-2)[Gal(a1-3)]Gal(b1-3)GlcNAc(b1-2)Man(a1-6)]Man(b1-4)GlcNAc(b1-4)GlcNAc
# How it was run: as §1
# [25] = target: Fuc(a1-2)[Gal(a1-3)]Gal(b1-3)GlcNAc(b1-2)Man(a1-3)[Fuc(a1-2)[Gal(a1-3)]Gal(b1-3)GlcNAc(b1-2)Man(a1-6)]Man(b1-4)GlcNAc(b1-4)[Fuc(a1-6)]GlcNAc
# How it was run: as §1
# [26] = target: Fuc(a1-2)[Gal(a1-3)]Gal(b1-3)GlcNAc(b1-3)GalNAc
# How it was run: as §1
# [27] = target: Fuc(a1-2)[Gal(a1-3)]Gal(b1-3)GlcNAc(b1-6)GalNAc
# How it was run: as §1
# [28] = target: Fuc(a1-2)[Gal(a1-3)]Gal(b1-4)Glc
# How it was run: as §1
# [29] = target: Fuc(a1-2)[Gal(a1-3)]Gal(b1-4)GlcNAc
# How it was run: as §1
# [30] = target: Fuc(a1-2)[Gal(a1-3)]Gal(b1-4)GlcNAc(b1-2)Man
# How it was run: as §1
binder,measurement,setting,value
"CFEM-PPm (Pichia pastoris), F2QPV1 (protein) AVATPPACLLACAAEVVKESSDCDALNNIQCICENEGSAIHACLESTCPDGLSSTALQSFEDVCE",glycan array binding signal (z-score),[1],-0.051
same,glycan array binding signal (z-score),[2],-0.286
same,glycan array binding signal (z-score),[3],1.77
same,glycan array binding signal (z-score),[4],-0.274
same,glycan array binding signal (z-score),[5],-0.365
same,glycan array binding signal (z-score),[6],-0.119
same,glycan array binding signal (z-score),[7],-0.134
same,glycan array binding signal (z-score),[8],-0.258
same,glycan array binding signal (z-score),[9],-0.114
same,glycan array binding signal (z-score),[10],0.328
same,glycan array binding signal (z-score),[11],-0.294
same,glycan array binding signal (z-score),[12],-0.261
same,glycan array binding signal (z-score),[13],1.31
same,glycan array binding signal (z-score),[14],-0.326
same,glycan array binding signal (z-score),[15],-0.276
same,glycan array binding signal (z-score),[16],-0.157
same,glycan array binding signal (z-score),[17],0.032
same,glycan array binding signal (z-score),[18],-0.115
same,glycan array binding signal (z-score),[19],-0.412
same,glycan array binding signal (z-score),[20],0.243
same,glycan array binding signal (z-score),[21],-0.269
same,glycan array binding signal (z-score),[22],-0.264
same,glycan array binding signal (z-score),[23],-0.127
same,glycan array binding signal (z-score),[24],-0.23
same,glycan array binding signal (z-score),[25],-0.265
same,glycan array binding signal (z-score),[26],-0.133
same,glycan array binding signal (z-score),[27],-0.208
same,glycan array binding signal (z-score),[28],-0.16
same,glycan array binding signal (z-score),[29],-0.175
same,glycan array binding signal (z-score),[30],-0.283
